# In PMC13010378:
# By UniProt entry, the sequences of proteins in these tests, tags left out.
# UniProt P38606: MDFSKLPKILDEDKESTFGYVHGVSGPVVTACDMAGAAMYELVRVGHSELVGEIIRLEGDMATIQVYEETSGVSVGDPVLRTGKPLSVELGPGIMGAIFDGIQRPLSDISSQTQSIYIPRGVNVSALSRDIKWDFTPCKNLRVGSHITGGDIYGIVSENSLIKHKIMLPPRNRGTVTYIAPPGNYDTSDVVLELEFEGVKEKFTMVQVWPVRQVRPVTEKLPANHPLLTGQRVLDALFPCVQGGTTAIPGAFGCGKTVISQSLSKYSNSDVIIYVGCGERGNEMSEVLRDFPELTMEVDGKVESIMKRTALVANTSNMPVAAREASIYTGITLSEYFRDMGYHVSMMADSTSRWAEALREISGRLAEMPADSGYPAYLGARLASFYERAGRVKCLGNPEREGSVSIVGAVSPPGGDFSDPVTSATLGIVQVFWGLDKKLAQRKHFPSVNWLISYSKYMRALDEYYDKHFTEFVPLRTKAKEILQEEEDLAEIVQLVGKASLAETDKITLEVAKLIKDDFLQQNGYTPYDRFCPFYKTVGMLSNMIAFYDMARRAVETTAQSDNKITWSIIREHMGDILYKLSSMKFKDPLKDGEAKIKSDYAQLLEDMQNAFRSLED
# UniProt P51863: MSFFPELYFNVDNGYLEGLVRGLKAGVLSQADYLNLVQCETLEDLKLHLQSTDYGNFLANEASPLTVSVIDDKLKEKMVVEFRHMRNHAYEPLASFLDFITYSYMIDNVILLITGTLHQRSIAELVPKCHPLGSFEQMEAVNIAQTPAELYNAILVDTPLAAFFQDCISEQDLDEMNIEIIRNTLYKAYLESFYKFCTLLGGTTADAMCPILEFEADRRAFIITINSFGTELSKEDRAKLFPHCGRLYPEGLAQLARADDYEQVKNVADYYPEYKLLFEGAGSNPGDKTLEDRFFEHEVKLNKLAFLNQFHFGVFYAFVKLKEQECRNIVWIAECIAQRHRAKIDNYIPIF
# UniProt O75348: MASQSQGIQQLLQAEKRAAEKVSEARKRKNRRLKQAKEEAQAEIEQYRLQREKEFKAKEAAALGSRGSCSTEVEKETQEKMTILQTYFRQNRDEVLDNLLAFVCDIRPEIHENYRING
# UniProt P61421: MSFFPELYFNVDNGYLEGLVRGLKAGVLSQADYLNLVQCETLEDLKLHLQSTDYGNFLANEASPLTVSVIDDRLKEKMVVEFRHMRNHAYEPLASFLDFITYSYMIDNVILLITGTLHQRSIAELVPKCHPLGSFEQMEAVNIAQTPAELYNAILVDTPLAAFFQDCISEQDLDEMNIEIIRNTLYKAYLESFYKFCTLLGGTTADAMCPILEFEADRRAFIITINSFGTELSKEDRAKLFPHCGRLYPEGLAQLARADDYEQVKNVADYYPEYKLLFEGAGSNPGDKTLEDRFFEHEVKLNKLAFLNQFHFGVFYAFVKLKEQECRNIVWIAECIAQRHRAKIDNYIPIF
# UniProt P50516: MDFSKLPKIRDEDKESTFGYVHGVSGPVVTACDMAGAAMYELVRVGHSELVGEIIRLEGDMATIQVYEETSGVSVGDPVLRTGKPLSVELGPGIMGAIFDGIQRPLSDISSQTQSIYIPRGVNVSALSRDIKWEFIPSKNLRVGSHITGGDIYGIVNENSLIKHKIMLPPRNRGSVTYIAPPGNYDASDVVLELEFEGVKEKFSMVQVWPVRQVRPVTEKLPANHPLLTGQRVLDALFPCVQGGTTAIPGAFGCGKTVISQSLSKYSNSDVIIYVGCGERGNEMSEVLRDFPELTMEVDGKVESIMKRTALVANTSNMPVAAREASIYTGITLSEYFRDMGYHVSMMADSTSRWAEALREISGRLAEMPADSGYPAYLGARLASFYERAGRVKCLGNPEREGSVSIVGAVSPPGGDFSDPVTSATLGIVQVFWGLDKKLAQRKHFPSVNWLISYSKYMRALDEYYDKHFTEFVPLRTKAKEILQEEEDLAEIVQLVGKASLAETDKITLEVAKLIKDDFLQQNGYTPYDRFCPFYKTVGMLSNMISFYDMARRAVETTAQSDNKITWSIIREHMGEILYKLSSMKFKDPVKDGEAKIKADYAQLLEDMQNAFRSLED
# UniProt P21281: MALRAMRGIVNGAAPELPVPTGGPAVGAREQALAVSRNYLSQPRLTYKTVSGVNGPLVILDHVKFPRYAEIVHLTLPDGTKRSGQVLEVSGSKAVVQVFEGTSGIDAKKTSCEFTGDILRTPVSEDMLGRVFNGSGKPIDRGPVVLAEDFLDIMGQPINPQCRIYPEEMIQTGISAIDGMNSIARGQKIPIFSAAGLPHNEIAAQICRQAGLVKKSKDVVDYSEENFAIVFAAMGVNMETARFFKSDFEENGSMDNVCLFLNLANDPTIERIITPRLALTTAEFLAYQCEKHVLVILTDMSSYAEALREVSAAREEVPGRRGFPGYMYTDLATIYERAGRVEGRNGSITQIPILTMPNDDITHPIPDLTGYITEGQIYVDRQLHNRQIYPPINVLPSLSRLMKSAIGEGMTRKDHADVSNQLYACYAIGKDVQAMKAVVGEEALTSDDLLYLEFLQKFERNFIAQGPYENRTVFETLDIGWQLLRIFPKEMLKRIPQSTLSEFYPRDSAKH
# UniProt Q9UI12: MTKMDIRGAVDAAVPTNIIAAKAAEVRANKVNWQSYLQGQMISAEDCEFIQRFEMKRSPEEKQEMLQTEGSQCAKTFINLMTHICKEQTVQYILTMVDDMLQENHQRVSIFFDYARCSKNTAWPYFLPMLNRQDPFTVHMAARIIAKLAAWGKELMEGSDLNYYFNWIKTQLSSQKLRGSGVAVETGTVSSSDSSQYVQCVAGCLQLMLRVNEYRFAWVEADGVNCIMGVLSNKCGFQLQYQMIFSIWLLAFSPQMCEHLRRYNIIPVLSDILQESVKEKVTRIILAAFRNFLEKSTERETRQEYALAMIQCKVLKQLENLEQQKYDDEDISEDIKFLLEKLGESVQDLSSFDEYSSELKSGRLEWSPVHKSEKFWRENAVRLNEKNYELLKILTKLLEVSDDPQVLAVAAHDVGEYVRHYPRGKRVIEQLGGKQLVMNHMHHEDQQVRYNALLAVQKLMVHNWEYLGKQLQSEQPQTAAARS
# These are yes or no findings as the source states them, for the method shown. Binding seen in cells or lysates may run through a third protein. Some binding calls cover weakened binding; strength is not graded here. For some of these results: Where a sequence is shown, tags or fusion partners need not be part of it.
# Assays:
# [1] = molecular target: T1, FLAG-tagged full-length TCF25 (Transcriptional Factor 25) (not stated (human or mouse cDNA cloned)) (UniProt Q9BQ70); experiment: co-IP; HEK293T co-transfected with FLAG-tagged TCF25 (or its domains) and a tagged V-ATPase subunit, starved without glucose at the indicated time points; lysates in IP buffer precipitated with FLAG antibody and protein A/G magnetic beads at 4°C overnight, immunoblot
# T1 sequence: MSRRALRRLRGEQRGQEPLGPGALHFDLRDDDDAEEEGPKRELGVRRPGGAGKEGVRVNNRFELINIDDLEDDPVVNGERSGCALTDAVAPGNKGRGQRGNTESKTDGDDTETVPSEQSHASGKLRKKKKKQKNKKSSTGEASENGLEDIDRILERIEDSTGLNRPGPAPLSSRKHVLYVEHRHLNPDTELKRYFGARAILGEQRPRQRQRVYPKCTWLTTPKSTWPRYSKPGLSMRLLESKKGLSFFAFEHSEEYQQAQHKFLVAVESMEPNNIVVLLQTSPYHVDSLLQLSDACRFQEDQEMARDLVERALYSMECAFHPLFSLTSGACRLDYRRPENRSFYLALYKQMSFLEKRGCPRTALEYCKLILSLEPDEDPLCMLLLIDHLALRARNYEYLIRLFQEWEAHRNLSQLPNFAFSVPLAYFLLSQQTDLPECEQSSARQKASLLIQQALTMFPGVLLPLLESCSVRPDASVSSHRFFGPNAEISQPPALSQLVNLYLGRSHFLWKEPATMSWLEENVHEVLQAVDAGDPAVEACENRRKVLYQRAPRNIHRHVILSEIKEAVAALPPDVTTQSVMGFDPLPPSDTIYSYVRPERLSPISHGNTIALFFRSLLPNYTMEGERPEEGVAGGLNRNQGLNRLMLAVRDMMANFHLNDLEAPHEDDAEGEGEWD
# [2] = molecular target: HA-tagged V-ATPase V1 subunit A (ATP6V1A) (human) (UniProt P38606); experiment: co-IP; HEK293T transfected with HA-ATP6V1A with or without FLAG-TCF25, starved without glucose at the indicated time points; IP:HA, immunoblot for endogenous ATP6V0D1
# [3] = molecular target: endogenous ATP6V0D1 of mouse dermal fibroblasts (mouse (endogenous in MDF)) (UniProt P51863); experiment: proximity ligation; Duolink PLA with antibodies against ATP6V1A and ATP6V0D1 in fixed WT, TCF25-/- and TCF25 reconstituted MDFs starved without glucose at the indicated time points
# [4] = molecular target: T2, endogenous TCF25 of mouse dermal fibroblasts (mouse (endogenous in MDF)) (UniProt Q8R3L2); experiment: co-IP; endogenous proteins; MDF or HeLa cells starved without glucose at the indicated time points; lysates precipitated with TCF25 antibody (IP:TCF25), immunoblot
# T2 sequence: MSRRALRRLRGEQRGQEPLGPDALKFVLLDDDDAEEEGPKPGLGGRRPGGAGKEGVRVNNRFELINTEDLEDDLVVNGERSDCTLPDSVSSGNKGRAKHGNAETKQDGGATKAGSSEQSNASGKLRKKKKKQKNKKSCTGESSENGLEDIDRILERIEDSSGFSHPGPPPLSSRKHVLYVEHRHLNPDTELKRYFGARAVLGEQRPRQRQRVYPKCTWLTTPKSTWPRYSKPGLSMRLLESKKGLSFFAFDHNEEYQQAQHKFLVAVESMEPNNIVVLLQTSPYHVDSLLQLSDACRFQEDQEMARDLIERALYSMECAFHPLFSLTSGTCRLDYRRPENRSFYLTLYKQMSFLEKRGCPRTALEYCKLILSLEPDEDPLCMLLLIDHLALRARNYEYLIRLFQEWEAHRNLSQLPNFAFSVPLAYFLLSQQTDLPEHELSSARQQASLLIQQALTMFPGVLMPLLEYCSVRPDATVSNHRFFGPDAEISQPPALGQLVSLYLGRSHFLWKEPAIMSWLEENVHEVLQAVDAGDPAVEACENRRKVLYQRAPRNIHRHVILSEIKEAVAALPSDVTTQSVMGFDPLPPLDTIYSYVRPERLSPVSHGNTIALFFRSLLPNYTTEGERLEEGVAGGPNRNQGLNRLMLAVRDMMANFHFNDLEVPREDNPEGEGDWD
Substance,binding [1],also measured
HA-tagged ATP6V1G1 (from UniProt O75348 1-118),no binding,–
endogenous ATP6V0D1 of HEK293T cells (from UniProt P61421 1-351),–,binding [2]: binds
endogenous ATP6V1A of mouse dermal fibroblasts (from UniProt P50516 1-617),–,binding [3]: binds; binding [4]: binds
HA-tagged ATP6V1B2 (from UniProt P21281 1-511),no binding,–
Myc-tagged V-ATPase V0 subunit D1 (ATP6V0D1) (from UniProt P61421 1-351),no binding,–
HA-tagged ATP6V1H (from UniProt Q9UI12 1-483),no binding,–
